These results are taken from publication PMC4336329 (PLoS ONE, 2015).

SMILES strings stand for the structures. Among all 310,000 compounds or so, about 14,000 (4.5%) showed an effect of 50% or more. The effect is printed as a negative number. The list shows a part of the results.
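Further: peak tail current of the secondary pulse compared with the same well before compound.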

For this experiment, the target named is human ether-à-go-go-related gene (hERG) potassium channel (human, UniProt Q12809). Description: primary screen, population patch clamp on CHO cells stably expressing hERG.
human ether-à-go-go-related gene (hERG) potassium channel, sequence (Q12809 whole entry, looked up): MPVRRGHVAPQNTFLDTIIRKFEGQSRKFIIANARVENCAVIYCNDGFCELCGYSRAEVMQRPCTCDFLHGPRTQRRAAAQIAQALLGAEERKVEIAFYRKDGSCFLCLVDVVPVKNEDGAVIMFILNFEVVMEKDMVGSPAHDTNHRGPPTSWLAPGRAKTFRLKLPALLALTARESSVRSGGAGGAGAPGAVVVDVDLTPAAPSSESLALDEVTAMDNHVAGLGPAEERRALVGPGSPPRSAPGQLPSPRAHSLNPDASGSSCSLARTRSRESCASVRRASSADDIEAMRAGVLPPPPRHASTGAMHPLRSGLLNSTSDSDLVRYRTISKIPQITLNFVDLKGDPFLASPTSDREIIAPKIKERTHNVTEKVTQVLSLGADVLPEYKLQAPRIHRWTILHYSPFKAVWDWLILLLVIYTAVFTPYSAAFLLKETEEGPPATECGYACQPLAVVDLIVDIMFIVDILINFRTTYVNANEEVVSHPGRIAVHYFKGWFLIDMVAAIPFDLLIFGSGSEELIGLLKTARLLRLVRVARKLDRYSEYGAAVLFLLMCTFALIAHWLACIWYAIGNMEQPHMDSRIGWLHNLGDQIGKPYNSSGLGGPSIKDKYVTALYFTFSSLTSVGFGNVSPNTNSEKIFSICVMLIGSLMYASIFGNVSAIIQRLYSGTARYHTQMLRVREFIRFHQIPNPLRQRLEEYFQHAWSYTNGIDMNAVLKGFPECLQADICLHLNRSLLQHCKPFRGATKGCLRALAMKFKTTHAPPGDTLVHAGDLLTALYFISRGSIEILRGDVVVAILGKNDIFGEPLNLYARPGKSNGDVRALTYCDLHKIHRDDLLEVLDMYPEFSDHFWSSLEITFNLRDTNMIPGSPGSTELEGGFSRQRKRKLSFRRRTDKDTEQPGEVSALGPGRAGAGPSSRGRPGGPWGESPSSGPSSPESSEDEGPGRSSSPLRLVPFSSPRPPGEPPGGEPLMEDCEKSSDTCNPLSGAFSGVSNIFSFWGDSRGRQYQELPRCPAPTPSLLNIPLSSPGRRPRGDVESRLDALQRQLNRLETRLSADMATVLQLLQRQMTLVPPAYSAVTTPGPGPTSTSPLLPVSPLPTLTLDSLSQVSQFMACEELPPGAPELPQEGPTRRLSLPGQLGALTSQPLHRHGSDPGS
Consider `COc1ccccc1C(=O)NNC(=O)c1ccc(C)cc1`, for which the “hERG current change (%, negative = inhibition) at 10uM” value was found to be 9.24%. As for `CCCOP(=O)(c1ccc(N(C)C)cc1)C(O)c1ccccc1OC` (stereo not drawn), the figure is 13%. Turning to `Cn1cccc1C(=O)OCC(=O)NC1CCS(=O)(=O)C1` (stereo not drawn), the “hERG current change (%, negative = inhibition) at 10uM” value was -10.2%.

Consider `O=C(NC(=S)Nc1cc(S(=O)(=O)N2CCOCC2)ccc1N1CCOCC1)c1ccco1`, for which the “hERG current change (%, negative = inhibition) at 10uM” value is recorded as -39.4%. As for `CCCCC[C@H]1CN(Cc2ccc(OC)cc2)C(=O)[C@@H]1CC(=O)NCc1ccccc1`, the figure is -38.6%.

Consider `Nc1cc(-c2ccc(Cl)cc2)nn1S(=O)(=O)c1cccc2nsnc12`, for which the “hERG current change (%, negative = inhibition) at 10uM” value was -5.17%. In the case of `Cc1ccc(NC(=O)[C@@H]2CCCN2C(=O)c2cccs2)cc1S(=O)(=O)N1CCCCC1`, the “hERG current change (%, negative = inhibition) at 10uM” value is listed as -63.9%. As for `Cc1ccccc1N(CC(=O)NCc1ccc2c(c1)OCO2)C(=O)CCC(=O)Nc1ccccn1`, the figure is 2.38%; as for `CC(=O)Nc1ccc(NC(=O)Nc2ccc(C)c(C)c2)cc1`, 14.7%. Then `COC(=O)CN(c1ccc(C)cc1)S(=O)(=O)c1ccc(F)cc1`, with -19.9%; and `O=C(COC(=O)CCOc1ccccc1)Nc1ccc(Cl)cn1`, with 2.43%; and `COc1ccc(N(CC(=O)NCc2ccco2)S(=O)(=O)c2ccc(C)cc2)cc1OC`, with 11.6%. On to `COc1cc(/C=N/Nc2nc(C)cc(C)n2)ccc1OC(=O)c1ccco1`, for which the “hERG current change (%, negative = inhibition) at 10uM” value is 11.2%. As for `Cc1cc(=O)oc2cc(OC(=O)CCCCCN3C(=O)c4ccccc4C3=O)ccc12`, the figure is 9.57%. In the case of `CCCc1cc2c(=O)n(NC(=O)c3nn(C)cc3[N+](=O)[O-])c(C)nc2s1`, the “hERG current change (%, negative = inhibition) at 10uM” value is 32.2%. As for `COc1cccc(-c2noc(C3CCCN(C(=O)CC(C)(C)C)C3)n2)c1` (stereo not drawn), the figure is -10.7%; as for `O=C(c1ccc(F)cc1)C1CCN(C(=O)c2ccccc2)CC1`, -9.13%. `Cc1ccc(OCC(O)CN2C(=O)NC(C)(C)C2=O)cc1` (stereo not drawn): the “hERG current change (%, negative = inhibition) at 10uM” value was -2.46%. Then `CCOc1ccc(Oc2c(/C=N/NC(N)=O)c(C)nn2-c2ccccc2)cc1`, with -41.7%; and `Fc1ccccc1-c1csc(=Nc2cccnc2)n1CC1CCCO1` (stereo not drawn), with -16.8%. Then `CCOc1ccc(CC2c3cc(OCC)c(OCC)cc3CCN2C(=O)c2cc(OC)c(OC)c(OC)c2)cc1OCC` (stereo not drawn), with -6.21%. For the molecule `CCOC(=O)c1ccc(N2C(=O)CC(N3CCN(Cc4ccccc4)CC3)C2=O)cc1` (stereo not drawn), the “hERG current change (%, negative = inhibition) at 10uM” value is on record as -36.6%. As for `CSc1ccccc1NC(=O)C1CCN(S(C)(=O)=O)CC1`, the figure is 12.9%. As to `CCOC(=O)C1CN(S(=O)(=O)c2cccc(C(F)(F)F)c2)c2cc(CC(=O)OC)ccc2O1` (stereo not drawn), the “hERG current change (%, negative = inhibition) at 10uM” value is recorded as -8.37%. `O=S(=O)(CC(O)COc1ccccc1Cl)c1ccccc1` (stereo not drawn): the “hERG current change (%, negative = inhibition) at 10uM” value was 2.95%. For the molecule `N#CC1(NC(=O)COC(=O)c2cccc(-n3cnnn3)c2)CCCCC1`, the “hERG current change (%, negative = inhibition) at 10uM” value was -0.0138%. Then `CC(NC(=O)/C(=C/c1ccc2c(c1)OCO2)NC(=O)c1cccc([N+](=O)[O-])c1)C(=O)O` (stereo not drawn), with -0.336%. Take `CCC(C(=O)Nc1cnccn1)c1ccccc1` (stereo not drawn): the “hERG current change (%, negative = inhibition) at 10uM” value is listed as -7.15%. As for `CCC1CCc2[nH]nc(C(=O)O)c2C1` (stereo not drawn), the figure is -3.54%.

Regarding `CC1CCCCN1Cc1c(O)ccc2c(=O)c(-c3ccc(Cl)cc3)coc12` (stereo not drawn), the “hERG current change (%, negative = inhibition) at 10uM” value was -69.1%. `Cl.O=C(CN1C2=NCCN2c2ccccc21)c1ccco1`: the “hERG current change (%, negative = inhibition) at 10uM” value is reported as -20.7%. As for `CC(=O)N1CC[n+]2c(-c3ccc(Cl)cc3)csc21.[Br-]`, the figure is -1.19%; as for `CC(=O)N1CCc2cc(S(=O)(=O)N3c4ccccc4CC3C)ccc21` (stereo not drawn), -12.7%; as for `C#CCNC(=O)c1ccc(OCc2ccccc2)cc1Cl`, 2.16%. In the case of `Cn1ncc2c(=O)n(CC(=O)NC34CC5CC(CC(C5)C3)C4)cnc21`, the “hERG current change (%, negative = inhibition) at 10uM” value was 11.2%. As for `CCC(C)NC(=O)c1cn(C)c(=O)c2cc(OC)c(OC)cc12` (stereo not drawn), the figure is -2.86%; as for `COc1ccc(C(=O)Nc2nc3c(s2)CCCC3)cc1S(=O)(=O)N1CCCc2ccccc21`, -2.36%; as for `CC(=O)O.Oc1[nH]c2ccccc2c1N=Nc1ncnc2c1oc1ccccc12`, 1.1%. On to `CC1(C)OC(=O)C(=CNc2cccc(C(=O)O)c2)C(=O)O1`, for which the “hERG current change (%, negative = inhibition) at 10uM” value worked out at 18.7%.

On to `CC1CCCC(C)N1/N=C/c1ccccc1Br` (stereo not drawn), for which the “hERG current change (%, negative = inhibition) at 10uM” value came to 8.5%. Then `O=C(CC1C(=O)NCCN1Cc1cccc(F)c1)NC1CCCCC1` (stereo not drawn), with -1.05%; and `CCC(=O)NC1OC(CO)C(O)C(O)C1O` (stereo not drawn), with 30.3%; and `COc1ccc(CN(C)C(=O)C23CC4CC(CC(Cl)(C4)C2)C3)c(OC)c1OC`, with -9.63%. Then `O=C(CS(=O)(=O)c1ccccc1)c1cc2ccccc2oc1=O`, with -0.812%. As for `COc1cc(C2CC(=O)c3cnc(NC(C)=O)nc3C2)cc(OC)c1OC` (stereo not drawn), the figure is -0.439%. For `O=C(NCc1cccc(C(F)(F)F)c1)C1CC(c2ccccc2[N+](=O)[O-])=NO1` (stereo not drawn), the “hERG current change (%, negative = inhibition) at 10uM” value was -28.9%. As for `Cc1cccc(Cn2cnc3ccccc32)c1`, the figure is -11.3%; as for `Cc1cc(Br)c2nc3c(c(C(=O)O)c2c1)CCCCC3`, 4.41%. On to `O=C(NCc1cccs1)C1CCN(S(=O)(=O)c2cccs2)CC1`, for which the “hERG current change (%, negative = inhibition) at 10uM” value is -32.1%. As for `NC(=O)CSc1nnc2n(N)c(=O)c3ccccc3n12`, the figure is 8.34%; as for `COc1ccc(/C=N/NC(=O)C2C(C=C(Cl)Cl)C2(C)C)c(OC)c1` (stereo not drawn), -10.2%. In the case of `c1ccc(Nc2ccccn2)cc1`, the “hERG current change (%, negative = inhibition) at 10uM” value was determined as 16.1%. As for `C#CCOCCOCCOCCNc1nc(N2CCN(C(=O)[C@H]([C@@H](C)CC)n3cc(CCC[NH+]=C(N)N)nn3)CC2)nc(N2CCN(C(=O)[C@H](C)n3cc(CCC[NH+]=C(N)N)nn3)CC2)n1.[Cl-]`, the “hERG current change (%, negative = inhibition) at 10uM” value came out at 9.58%.

`Cn1ccnc1/C(=N\NC(=O)c1ccccc1)c1cccc([N+](=O)[O-])c1`: the “hERG current change (%, negative = inhibition) at 10uM” value was -68.6%. As for `COc1ccc(CN(CCNC(=O)CCCCC(=O)NCCN(Cc2ccc(OC)cc2)C(C)C)C(C)C)cc1.Cl`, the “hERG current change (%, negative = inhibition) at 10uM” value is reported as -5.63%. `C=CCOCC(O)Cn1c(N2CCCC2)nc2c1c(=O)n(C)c(=O)n2C` (stereo not drawn): the “hERG current change (%, negative = inhibition) at 10uM” value was 18.1%. With `O=c1c2ccccc2[nH]c(=S)n1-c1ccc2c(c1)OCO2`, the “hERG current change (%, negative = inhibition) at 10uM” value is 13.1%. Then `CCC1CCCCN1CCNC(=O)CNS(=O)(=O)c1ccc2nc(C)sc2c1` (stereo not drawn), with 10.5%; and `O=C1OC(c2ccc3c(c2)OCO3)N(C(=O)c2ccc(Cl)c(Cl)c2)c2ccccc21` (stereo not drawn), with 15.1%. `CCOC(=O)N1CCc2c(sc3c2c(=O)n(Cc2ccccc2)c(=O)n3CC(=O)NCC2CCCO2)C1` (stereo not drawn): the “hERG current change (%, negative = inhibition) at 10uM” value is recorded as -21.8%.

With `O=C(NC(=S)NCc1cccnc1)c1cc2ccccc2o1`, the “hERG current change (%, negative = inhibition) at 10uM” value was 8.71%. Then `Cc1nc2c3cc(Cl)ccc3n(CCN3CCOCC3)c2s1`, with -52.2%; and `Cc1ccc(OCCCC(=O)Nc2ccc(S(N)(=O)=O)cc2)cc1`, with -48.6%; and `Cc1ccc(N2NC(=O)/C(=C/c3ccc(-c4ccc(Cl)c(C(=O)O)c4)o3)C2=O)cc1C`, with 17.6%. As for `O=C(Nc1nnc(-c2ccccc2)o1)c1cc(Cl)sc1Cl`, the figure is 12.1%; as for `COC(=O)c1ccccc1NC(=O)N1CCN(S(=O)(=O)c2ccc(Cl)cc2)CC1`, 7.58%; as for `COc1ccc(-c2cc(C(=O)Nc3c(C)nn(Cc4ccccc4)c3C)no2)cc1`, 4.15%. For `Clc1ccc(NNc2ccnc3cc(Cl)ccc23)cc1`, the “hERG current change (%, negative = inhibition) at 10uM” value was -3.75%. For the molecule `O=C(Nc1scc(-c2ccc(Br)cc2)c1C(=O)O)c1ccccc1F`, the “hERG current change (%, negative = inhibition) at 10uM” value came to 31.2%.

In the case of `Brc1ccc(COc2ncnc3ccccc23)cc1`, the “hERG current change (%, negative = inhibition) at 10uM” value is listed as -4.31%.

`CC(=NCCc1c(C)[nH]c2ccc(C)cc12)C1=C(O)CC(c2ccccc2)CC1=O` (stereo not drawn): the “hERG current change (%, negative = inhibition) at 10uM” value is -4.58%. Consider `CN1CCN(Cc2c(O)ccc3c2oc(=O)c2ccccc23)CC1`, for which the “hERG current change (%, negative = inhibition) at 10uM” value was found to be 7.11%. As for `Cc1c(CNCCc2ccccc2Cl)c(C(=O)O)c(C)n1-c1ccccc1`, the figure is 3.78%; as for `Cc1ccc(S(=O)(=O)Nc2ccc3c(c2)nc(CN2CCCC2)n3C)cc1`, -46.5%; as for `CCOC(=O)c1c(NC(=O)Cn2nc(C(F)(F)F)cc2C)sc2c1CCC2`, -4.65%. As for `Cc1ccc(N=Cc2sc(O)c3ccccc23)c(C)c1`, the “hERG current change (%, negative = inhibition) at 10uM” value came to 23.5%. As for `Nc1n[nH]c2c1C1(CCCC1)Cc1ccccc1-2`, the figure is 9.98%; as for `COc1ccccc1-c1cc(C(=O)NCc2ccccc2)no1`, -12%; as for `CCOC(=O)c1sc(NC(=O)C2CC(=O)N(c3ccc(C)cc3)C2)nc1C` (stereo not drawn), -18.5%.

In the case of `CC1CCCCN1Cc1ccc(N(C)C)cc1` (stereo not drawn), the “hERG current change (%, negative = inhibition) at 10uM” value was determined as 8.46%. As for `COc1ccc(NC(=O)CSc2nnnn2-c2ccccc2F)cc1`, the figure is 7.62%; as for `CC(CP(=O)(O)O)NC(=O)Cc1ccccc1` (stereo not drawn), 9.67%. Turning to `Clc1ccc(CNc2cnccn2)cc1`, the “hERG current change (%, negative = inhibition) at 10uM” value is on record as 29.4%. As for `COC(=O)c1ccc(CO/N=C(\NC(C)=O)c2nonc2NC(C)=O)cc1`, the figure is 11.9%; as for `CCN(CC)CCCNC(=O)c1cc2c(=O)n(C)c3ccccc3c2n1C`, -1.21%. For `O=C(CNC(=O)c1cccs1)c1ccc(Cl)cc1`, the “hERG current change (%, negative = inhibition) at 10uM” value is reported as 13.1%. As for `O=C(Nc1ccc(Cl)cc1)Nc1ccc(Br)cn1`, the “hERG current change (%, negative = inhibition) at 10uM” value was 9.52%.
